# This is one part of the list.
# Legend:
# Experiment in all cases: glycan array binding signal (z-score within array); higher = stronger binding
# Conditions in all cases: glycan notation: IUPAC condensed, linker removed
# [1] = molecular target: Neu5Ac(a2-3)Gal(b1-4)GlcNAc(b1-6)GalNAc
# In short: (§1)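 Glycan array data came from 3228 arrays in the Consortium for Functional Glycomics database, and only arrays with an available protein sequence were kept. Glycan names were put into IUPAC-condensed notation, and columns mapping to the same glycan were averaged. The binding signal is a within-array Z-score, averaged across arrays of one protein sequence run at different concentrations or buffers and across linkers. A negative Z-score can be read as non-binding.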
# [2] = molecular target: Neu5Ac(a2-3)Gal(b1-4)GlcNAc(b1-6)[Gal(b1-3)]GalNAc
# In short: as §1
# [3] = molecular target: Neu5Ac(a2-3)Gal(b1-4)GlcNAc(b1-6)[Neu5Ac(a2-3)Gal(b1-3)]GalNAc
# In short: as §1
# [4] = molecular target: Neu5Ac(a2-3)Gal(b1-4)GlcNAc6S
# In short: as §1
# [5] = molecular target: Neu5Ac(a2-3)Gal(b1-4)[Fuc(a1-3)]GlcNAc
# In short: as §1
# [6] = molecular target: Neu5Ac(a2-3)Gal(b1-4)[Fuc(a1-3)]GlcNAc(b1-2)Man
# In short: as §1
# [7] = molecular target: Neu5Ac(a2-3)Gal(b1-4)[Fuc(a1-3)]GlcNAc(b1-3)Gal
# In short: as §1
# [8] = molecular target: Neu5Ac(a2-3)Gal(b1-4)[Fuc(a1-3)]GlcNAc(b1-3)Gal(b1-4)GlcNAc
# In short: as §1
# [9] = molecular target: Neu5Ac(a2-3)Gal(b1-4)[Fuc(a1-3)]GlcNAc(b1-3)Gal(b1-4)[Fuc(a1-3)]GlcNAc(b1-3)Gal(b1-4)[Fuc(a1-3)]GlcNAc
# In short: as §1
# [10] = molecular target: Neu5Ac(a2-3)Gal(b1-4)[Fuc(a1-3)]GlcNAc(b1-3)GalNAc
# In short: as §1
# [11] = molecular target: Neu5Ac(a2-3)Gal(b1-4)[Fuc(a1-3)]GlcNAc(b1-6)[Gal(b1-3)]GalNAc
# In short: as §1
# [12] = molecular target: Neu5Ac(a2-3)Gal(b1-4)[Fuc(a1-3)]GlcNAc(b1-6)[Neu5Ac(a2-3)Gal(b1-3)]GalNAc
# In short: as §1
# [13] = molecular target: Neu5Ac(a2-3)Gal(b1-4)[Fuc(a1-3)]GlcNAc6S
# In short: as §1
# [14] = molecular target: Neu5Ac(a2-3)Gal6S(b1-4)GlcNAc
# In short: as §1
# [15] = molecular target: Neu5Ac(a2-3)Gal6S(b1-4)[Fuc(a1-3)]GlcNAc
# In short: as §1
# Neu5Ac(a2-3)GalNAc = molecular target: Neu5Ac(a2-3)GalNAc
# In short: as §1
# [16] = molecular target: Neu5Ac(a2-3)GalNAc(b1-4)GlcNAc
# In short: as §1
# [17] = molecular target: Neu5Ac(a2-3)[GalNAc(b1-4)]Gal(b1-4)Glc
# In short: as §1
# [18] = molecular target: Neu5Ac(a2-3)[GalNAc(b1-4)]Gal(b1-4)GlcNAc
# In short: as §1
# [19] = molecular target: Neu5Ac(a2-3)[GalNAc(b1-4)]Gal(b1-4)GlcNAc(b1-3)GalNAc
# In short: as §1
# [20] = molecular target: Neu5Ac(a2-3)[Neu5Ac(a2-6)]GalNAc
# In short: as §1
# Neu5Ac(a2-6)Gal = molecular target: Neu5Ac(a2-6)Gal
# In short: as §1
# [21] = molecular target: Neu5Ac(a2-6)Gal(b1-3)GlcNAc(b1-3)[Gal(b1-4)GlcNAc(b1-6)]Gal(b1-4)Glc
# In short: as §1
# Neu5Ac(a2-6)Gal(b1-4)Glc = molecular target: Neu5Ac(a2-6)Gal(b1-4)Glc
# In short: as §1
# [22] = molecular target: Neu5Ac(a2-6)Gal(b1-4)GlcNAc
# In short: as §1
# [23] = molecular target: Neu5Ac(a2-6)Gal(b1-4)GlcNAc(b1-2)Man
# In short: as §1
# [24] = molecular target: Neu5Ac(a2-6)Gal(b1-4)GlcNAc(b1-2)Man(a1-3)Man(b1-4)GlcNAc(b1-4)GlcNAc
# In short: as §1
# [25] = molecular target: Neu5Ac(a2-6)Gal(b1-4)GlcNAc(b1-2)Man(a1-3)[Gal(b1-4)GlcNAc(b1-2)Man(a1-6)]Man(b1-4)GlcNAc(b1-4)GlcNAc
# In short: as §1
# [26] = molecular target: Neu5Ac(a2-6)Gal(b1-4)GlcNAc(b1-2)Man(a1-3)[GlcNAc(b1-2)Man(a1-6)]Man(b1-4)GlcNAc(b1-4)GlcNAc
# In short: as §1
# [27] = molecular target: Neu5Ac(a2-6)Gal(b1-4)GlcNAc(b1-2)Man(a1-3)[GlcNAc(b1-4)][Neu5Ac(a2-6)Gal(b1-4)GlcNAc(b1-2)Man(a1-6)]Man(b1-4)GlcNAc(b1-4)GlcNAc
# In short: as §1
# [28] = molecular target: Neu5Ac(a2-6)Gal(b1-4)GlcNAc(b1-2)Man(a1-3)[Man(a1-6)]Man(b1-4)GlcNAc(b1-4)GlcNAc
# In short: as §1
# [29] = molecular target: Neu5Ac(a2-6)Gal(b1-4)GlcNAc(b1-2)Man(a1-3)[Neu5Ac(a2-3)Gal(b1-4)GlcNAc(b1-2)Man(a1-6)]Man(b1-4)GlcNAc(b1-4)GlcNAc
# In short: as §1
# [30] = molecular target: Neu5Ac(a2-6)Gal(b1-4)GlcNAc(b1-2)Man(a1-3)[Neu5Ac(a2-6)Gal(b1-4)GlcNAc(b1-2)Man(a1-6)]Man(b1-4)GlcNAc(b1-4)GlcNAc
# In short: as §1
# [31] = molecular target: Neu5Ac(a2-6)Gal(b1-4)GlcNAc(b1-2)Man(a1-3)[Neu5Ac(a2-6)Gal(b1-4)GlcNAc(b1-2)Man(a1-6)]Man(b1-4)GlcNAc(b1-4)[Fuc(a1-6)]GlcNAc
# In short: as §1
# [32] = molecular target: Neu5Ac(a2-6)Gal(b1-4)GlcNAc(b1-2)Man(a1-6)Man(b1-4)GlcNAc(b1-4)GlcNAc
# In short: as §1
# [33] = molecular target: Neu5Ac(a2-6)Gal(b1-4)GlcNAc(b1-2)Man(a1-6)[Gal(b1-4)GlcNAc(b1-2)Man(a1-3)]Man(b1-4)GlcNAc(b1-4)GlcNAc
# In short: as §1
# [34] = molecular target: Neu5Ac(a2-6)Gal(b1-4)GlcNAc(b1-2)Man(a1-6)[GlcNAc(b1-2)Man(a1-3)]Man(b1-4)GlcNAc(b1-4)GlcNAc
# In short: as §1
# [35] = molecular target: Neu5Ac(a2-6)Gal(b1-4)GlcNAc(b1-2)Man(a1-6)[Man(a1-3)]Man(b1-4)GlcNAc(b1-4)GlcNAc
# In short: as §1
# [36] = molecular target: Neu5Ac(a2-6)Gal(b1-4)GlcNAc(b1-2)[Neu5Ac(a2-6)Gal(b1-4)GlcNAc(b1-4)]Man(a1-3)[GlcNAc(b1-4)][Neu5Ac(a2-6)Gal(b1-4)GlcNAc(b1-2)[Neu5Ac(a2-6)Gal(b1-4)GlcNAc(b1-6)]Man(a1-6)]Man(b1-4)GlcNAc(b1-4)GlcNAc
# In short: as §1
# [37] = molecular target: Neu5Ac(a2-6)Gal(b1-4)GlcNAc(b1-2)[Neu5Ac(a2-6)Gal(b1-4)GlcNAc(b1-4)]Man(a1-3)[GlcNAc(b1-4)][Neu5Ac(a2-6)Gal(b1-4)GlcNAc(b1-4)Man(a1-6)]Man(b1-4)GlcNAc(b1-4)GlcNAc
# In short: as §1
# [38] = molecular target: Neu5Ac(a2-6)Gal(b1-4)GlcNAc(b1-2)[Neu5Ac(a2-6)Gal(b1-4)GlcNAc(b1-6)]Man(a1-6)[Neu5Ac(a2-6)Gal(b1-4)GlcNAc(b1-2)Man(a1-3)][GlcNAc(b1-4)]Man(b1-4)GlcNAc(b1-4)GlcNAc
# In short: as §1
# [39] = molecular target: Neu5Ac(a2-6)Gal(b1-4)GlcNAc(b1-3)Gal(b1-3)GlcNAc
# In short: as §1
# [40] = molecular target: Neu5Ac(a2-6)Gal(b1-4)GlcNAc(b1-3)Gal(b1-4)GlcNAc
# In short: as §1
# [41] = molecular target: Neu5Ac(a2-6)Gal(b1-4)GlcNAc(b1-3)Gal(b1-4)GlcNAc(b1-2)Man(a1-3)[Neu5Ac(a2-6)Gal(b1-4)GlcNAc(b1-3)Gal(b1-4)GlcNAc(b1-2)Man(a1-6)]GalNAc
# In short: as §1
# [42] = molecular target: Neu5Ac(a2-6)Gal(b1-4)GlcNAc(b1-3)Gal(b1-4)GlcNAc(b1-3)Gal(b1-4)GlcNAc
# In short: as §1
# [43] = molecular target: Neu5Ac(a2-6)Gal(b1-4)GlcNAc(b1-3)Gal(b1-4)GlcNAc(b1-3)Gal(b1-4)GlcNAc(b1-2)Man(a1-3)[Neu5Ac(a2-6)Gal(b1-4)GlcNAc(b1-3)Gal(b1-4)GlcNAc(b1-3)Gal(b1-4)GlcNAc(b1-2)Man(a1-6)]GalNAc
# In short: as §1
binder,measurement,setting,value
B1567 (Bifidobacterium sp) (protein) MKFTTAKKAVALTGAVAMLVSVAACGSDSGKSSQPAQDSDVKEITVWAWEPSLTQVAKDFEKETGIKVDLKNVGTNTKEYTQLDNAIEAGSGAPDVAQVEYYAVPQYAIKGNLLDITDKTSGYKDFYTPGPWASVQFAGKVYGLPMDSGPMAFFYNKEVFDKAGVDAEQIKTWDQYYDAAKKIHALGDNYYITSDTGDAGFFDSMTWLAGAKPFQTSSDGSEVTVNLTEDKGVKTFTDFWQKLLDEGLLDTKTAGWSEDWFKGMVDGTIASLFTGAWMPANLANSAADGAGKWRVTQMPTADGSTTNSENGGSSLAVLASTKKADAAYQFIEYANHGAGVATRVAGGAFPADKASLEKDSFKNATTVKNADGQDVDYFGGQKYNEVLAQAAENVSSGYQFLPFEVKARTIFGDYFGKSYTGDQKLSDGVAAWQKALQDYGKDQGFTVK,glycan array binding signal (z-score),[1],-0.088
same,glycan array binding signal (z-score),[2],-0.096
same,glycan array binding signal (z-score),[3],-0.097
same,glycan array binding signal (z-score),[4],-0.084
same,glycan array binding signal (z-score),[5],-0.082
same,glycan array binding signal (z-score),[6],-0.132
same,glycan array binding signal (z-score),[7],-0.124
same,glycan array binding signal (z-score),[8],-0.046
same,glycan array binding signal (z-score),[9],-0.073
same,glycan array binding signal (z-score),[10],0.075
same,glycan array binding signal (z-score),[11],0.179
same,glycan array binding signal (z-score),[12],-0.104
same,glycan array binding signal (z-score),[13],-0.166
same,glycan array binding signal (z-score),[14],-0.141
same,glycan array binding signal (z-score),[15],-0.1
same,glycan array binding signal (z-score),Neu5Ac(a2-3)GalNAc,-0.12
same,glycan array binding signal (z-score),[16],-0.096
same,glycan array binding signal (z-score),[17],-0.155
same,glycan array binding signal (z-score),[18],-0.145
same,glycan array binding signal (z-score),[19],-0.079
same,glycan array binding signal (z-score),[20],-0.129
same,glycan array binding signal (z-score),Neu5Ac(a2-6)Gal,-0.082
same,glycan array binding signal (z-score),[21],-0.118
same,glycan array binding signal (z-score),Neu5Ac(a2-6)Gal(b1-4)Glc,-0.136
same,glycan array binding signal (z-score),[22],-0.107
same,glycan array binding signal (z-score),[23],-0.065
same,glycan array binding signal (z-score),[24],-0.117
same,glycan array binding signal (z-score),[25],-0.128
same,glycan array binding signal (z-score),[26],-0.135
same,glycan array binding signal (z-score),[27],-0.107
same,glycan array binding signal (z-score),[28],-0.15
same,glycan array binding signal (z-score),[29],-0.036
same,glycan array binding signal (z-score),[30],-0.09
same,glycan array binding signal (z-score),[31],-0.116
same,glycan array binding signal (z-score),[32],-0.096
same,glycan array binding signal (z-score),[33],-0.073
same,glycan array binding signal (z-score),[34],-0.14
same,glycan array binding signal (z-score),[35],-0.109
same,glycan array binding signal (z-score),[36],-0.141
same,glycan array binding signal (z-score),[37],-0.06
same,glycan array binding signal (z-score),[38],-0.107
same,glycan array binding signal (z-score),[39],-0.055
same,glycan array binding signal (z-score),[40],-0.147
same,glycan array binding signal (z-score),[41],-0.126
same,glycan array binding signal (z-score),[42],-0.089
same,glycan array binding signal (z-score),[43],-0.031

# Source: the supplement of paper PMC8728848
